“And” between values parts separate entries of the source, which are not always exact repeats. Identical values can stand only once. Like-named read-outs stand apart in the source and are kept apart here. Not every detail of the peptide structures is certain; ends, links or a residue may be inferred. Ends that are not written are not given here.
What was measured:
primary myoblasts = assay: Calcein endosomal escape assay, quantification by flow cytometry (mean counts, Mean Factor); assay type: cell-based, Human; settings: for Mean Factor: fold-increase relative to untreated calcein-loaded cells
Source text: Calcein is a membrane-impermeable fluorescent molecule that is readily internalized by cells when administered to the extracellular medium. Its fluorescence is […] and calcein self-quenches at higher concentrations. Once internalized, calcein becomes sequestered at high concentrations in cell endosomes and can be visualized by fluorescence microscopy as a punctate pattern. Following endosomal leakage, calcein is released to the cell cytoplasm and this release can be visualized by fluorescence microscopy as a diffuse pattern.
The cells were allowed to attach by incubating overnight in appropriate growth media, as described in Example 1. The next day, the media in wells was removed and replaced with 50 μL of fresh media without serum containing 62.5 μg/mL (100 μM) of calcein, except for HEK293A (250 μg/mL, 400 μM). At the same time, the shuttle agent(s) to be tested was added at a predetermined concentration. The plate was incubated at 37° C. for 30 minutes. The cells were washed with 1× PBS (37° C.) and fresh media containing 5-10% serum was added. The plate was incubated at 37° C. for 2.5 hours. The cells were washed with 1× PBS and detached using trypsinization.
Untreated calcein-loaded cells were used as a control to distinguish cells having a baseline of fluorescence due to endosomally-trapped calcein from cells having increased fluorescence due to release of calcein from endosomes. Fluorescence signal means (“mean counts”) were analyzed for endosomal escape quantification. In some cases, the “Mean Factor” was calculated, which corresponds to the fold-increase of the mean counts relative to control (untreated calcein-loaded cells). […] The cellular mortality was monitored with the percentage of cells in the total events scanned. When it became lower than the control, it was considered that the number of cellular debris was increasing due to toxicity and the assay was discarded.

HEK293A cells = assay: Plasmid DNA (pEGFP-Cy5) delivery / transfection assay (Cy5 and GFP emission by flow cytometry); assay type: cell-based, Human; settings: for Cy5 fluorescence: Mean Cy5 signal (n = 3) / GFP expression: Mean (% of cells with GFP signal; n = 3): HEK293A, pEGFP-Cy5 DNA 500 ng, 4 hours
HeLa cells [1] = assay: TAT-GFP protein transduction assay (flow cytometry, cell viability, fluorescence microscopy); assay type: cell-based, Human; settings: TAT-GFP 5 μM, 1 hour; for FIG. 11A Mean (%) (n = 3): HeLa
Method: Briefly, TAT-GFP recombinant protein (5 μM) was co-incubated with different concentrations of CM18-TAT-Cys (0, 0.5, 1, 3, or 5 μM) and then exposed to HeLa cells for 1 hour.

HeLa cells [2] = assay type: cell-based, Human; settings: for Mean (%) (n = 3): HeLa
THP-1 cells = assay: GFP-NLS protein transduction assay (flow cytometry: Pos cells %, viability %, relative fluorescence intensity; microscopy); settings: Table 5.5; GFP-NLS 5 μM, THP-1, 5 minutes; shuttle 1 μM
HeLa cells [3] = assay: as above; settings: GFP-NLS 5 μM; for FIG. 13A Mean (%) (n = 3): Table 5.1, HeLa

What does the source list for “KWKLFKKIGAVLKVLTTGYGRKKRRQRRRC [CM18-TAT-Cys]”?
Mean counts (calcein fluorescence) (primary myoblasts; peptide 5 μM, calcein 100 μM): 79 826 and 91 618 and 88 686; Mean Factor (primary myoblasts; peptide 5 μM): 2.1 and 2.9; Mean counts (calcein fluorescence) (primary myoblasts; peptide 7.5 μM): 95 289; Mean Factor (primary myoblasts; peptide 7.5 μM): 3.1; Mean counts (calcein fluorescence) (primary myoblasts; peptide 8 μM, calcein 100 μM): 91 421; Mean Factor (primary myoblasts; peptide 8 μM): 2.4; expression of GFP from delivered plasmid (HEK293A cells; 0.05, 0.5 and 5 μM): no expression of GFP was detected; intracellular delivery of plasmid DNA (Cy5 emission) (HEK293A cells; 0.05, 0.5 and 5 μM, compared to DNA alone): able to increase the intracellular delivery the plasmid DNA; Cy5 fluorescence: Mean Cy5 signal (n = 3) (HEK293A cells; peptide 0.05 μM): 1450; GFP expression: Mean (% of cells with GFP signal; n = 3) (HEK293A cells; peptide 0.05 μM): 0.0%; Cy5 fluorescence: Mean Cy5 signal (n = 3) (HEK293A cells; peptide 0.5 μM): 8362; GFP expression: Mean (% of cells with GFP signal; n = 3) (HEK293A cells; peptide 0.5 μM): 0.0%; Cy5 fluorescence: Mean Cy5 signal (n = 3) (HEK293A cells; peptide 5 μM): 140 497; GFP expression: Mean (% of cells with GFP signal; n = 3) (HEK293A cells; peptide 5 μM): 0.1%; transfection efficiency (HEK293A cells; Table 7.1): 0.1%; FIG. 11A Mean (%) (n = 3) (HeLa cells [1]; shuttle 0.5 μM): 10.19%; FIG. 11A Mean (%) (n = 3) (HeLa cells [1]; shuttle 1 μM): 14.46%; FIG. 11A Mean (%) (n = 3) (HeLa cells [1]; shuttle 3 μM): 28.12%; FIG. 11A Mean (%) (n = 3) (HeLa cells [1]; shuttle 5 μM): 35.5^2%; TAT-GFP subcellular delivery (fluorescence microscopy) (HeLa cells [1]; shuttle 3 μM): TAT-GFP is delivered to the cytoplasm and to the nucleus; GFP intracellular delivery (fluorescence microscopy) (HeLa cells [2]; 3 or 5 μM shuttle, 1 hour, FIG. 5): GFP was delivered intracellularly to HeLa cells; GFP intracellular delivery (fluorescence microscopy) (HeLa cells [2]; GFP 5 μM, 5 μM of each peptide, 1 hour, data not shown): successfully delivered intracellularly; GFP transduction efficiency / intracellular delivery (flow cytometry, in words) (HeLa cells [2]; GFP 5 μM, 1 hour, Tables 3.3 and 3.4, FIGS. 8 and 9): transduction efficiency of GFP is increased; Mean (%) (n = 3) (HeLa cells [2]; Table 3.3/FIG. 8, GFP 5 μM, 1 hour, flow cytometry, shuttle 0.5 μM): 8.75%; Mean (%) (n = 3) (HeLa cells [2]; Table 3.4/FIG. 9, GFP 5 μM, 1 hour, shuttle 1 μM): 20.19%; Mean (%) fluorescent (GFP-positive) cells (HeLa cells [2]; shuttle 0.5 μM, GFP (5 μM), 1 hour): 8.67%; Mean (%) fluorescent (GFP-positive) cells (HeLa cells [2]; shuttle 1 μM, GFP (5 μM), 1 hour): 20.03%; Mean (%) fluorescent (GFP-positive) cells (HeLa cells [2]; shuttle 3 μM, GFP (5 μM), 1 hour): 31.06%; Mean (%) fluorescent (GFP-positive) cells (HeLa cells [2]; shuttle 5 μM, GFP (5 μM), 1 hour): 36.91%; Mean (%) fluorescent (GFP-positive) cells (HeLa cells [2]; shuttle agent 5 μM, GFP 1 μM): 8.56%; Mean (%) fluorescent (GFP-positive) cells (HeLa cells [2]; shuttle agent 5 μM, GFP 5 μM): 21.1%; Mean (%) fluorescent (GFP-positive) cells (HeLa cells [2]; shuttle agent 5 μM, GFP 10 μM): 37.1%; FIG. 17A Mean (%) (n = 3) (THP-1 cells): 38.1%; GFP-NLS transduction efficiency / intracellular delivery (flow cytometry, in words) (HeLa cells [3]; 1 hour, Tables 5.2 and 5.3): transduction efficiency of GFP-NLS is increased; GFP-NLS nuclear fluorescence (microscopy) (HeLa cells [3]; shuttle 5 μM, 1 hour, data not shown): successful delivery of GFP-NLS to the nucleus; GFP-NLS nuclear delivery (fluorescence microscopy) (HeLa cells [3]; shuttle 5 μM, after 5 minutes): GFP-NLS is efficiently delivered to the nucleus; FIG. 13A Mean (%) (n = 3) (HeLa cells [3]; 1 hour, shuttle 0.5 μM): 9.81%; FIG. 13A Mean (%) (n = 3) (HeLa cells [3]; 1 hour, shuttle 1 μM): 18.42%

From patent US12286632B2, “Rationally-designed synthetic peptide shuttle agents for delivering polypeptide cargos from an extracellular space to the cytosol and/or nucleus of a target eukaryotic cell, uses thereof, methods and kits relating to same” (Feldan Bio Inc., priority 2016, dated 2025)
